The record followed here is publication PMC12820563, “FoxP3 forms a head-to-head dimer in vivo and stabilizes its multimerization on adjacent microsatellites”.

Some of the results follow.

The target of this assay is T1, MBP-FoxP1dN (Mus musculus, UniProt P58462 326-579).
T1 sequence: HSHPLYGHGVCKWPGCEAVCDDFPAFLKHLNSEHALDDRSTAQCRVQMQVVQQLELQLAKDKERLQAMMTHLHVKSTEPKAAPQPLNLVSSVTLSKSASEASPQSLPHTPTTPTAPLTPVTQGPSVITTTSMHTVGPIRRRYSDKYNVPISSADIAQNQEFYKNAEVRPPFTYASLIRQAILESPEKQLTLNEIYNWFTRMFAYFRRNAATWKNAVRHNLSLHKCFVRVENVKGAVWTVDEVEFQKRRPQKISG
In words: PD-seq (MBP pull-down with sequencing); 20 mM Tris-HCl pH 7.5, 100 mM NaCl, 1.5 mM MgCl2, 0.4 uM protein, 0.1 uM dsDNA library, 30 min, room temperature, amylose pull-down; high values mean tight binding. The following applies: protein: recombinant; tags: His6-MBP; chain copies: 2; dsDNA, one strand shown. Put shortly:
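A degenerate double-stranded DNA library, filled in with Klenow, was added at 0.1 µM to 0.4 µM His6-MBP-tagged mouse FoxP3 or FoxP1 fragment lacking the N-terminus, expressed in E. coli. Incubation lasted 30 min at room temperature in Tris pH 7.5 buffer with NaCl and MgCl2, after which complexes were collected on amylose resin, washed three times, digested with proteinase K to free the DNA, barcoded by PCR and sequenced by Illumina. Binding is the pooled-replicate reads-per-million enrichment of pull-down over input.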
On to “GATGATTGTTCTCCCAGCTGATGAATTGGTGTCCTCGAGTAAACAAATTTTCCTAATCTTTCTGTTCAAGCGCCATCTAC”, for which the binding signal was 0.99 RPM ratio (pull-down/input). To “GATGATTGTTCTCCCAGCTGATGAATTTAATGTCTCGAGTAAACAAATTTTCCTAATCTTTCTGTTCAAGCGCCATCTAC” belongs 1.07 RPM ratio (pull-down/input); to “GATGATTGTTCTCCCAGCTGATGAATTTCGCGATTCGAGTAAACAAATTTTCCTAATCTTTCTGTTCAAGCGCCATCTAC”, 0.841 RPM ratio (pull-down/input); to “GATGATTGTTCTCCCAGCTGATGAATTGTGGCTTTCGAGTAAACAAATTTTCCTAATCTTTCTGTTCAAGCGCCATCTAC”, 1.19 RPM ratio (pull-down/input). To “GATGATTGTTCTCCCAGCTGATGAATTCCAGAAGTCGAGTAAACAAATTTTCCTAATCTTTCTGTTCAAGCGCCATCTAC” belongs 0.773 RPM ratio (pull-down/input); to “GATGATTGTTCTCCCAGCTGATGAATTTGTTATCTCGAGTAAACAAATTTTCCTAATCTTTCTGTTCAAGCGCCATCTAC”, 1.76 RPM ratio (pull-down/input); to “GATGATTGTTCTCCCAGCTGATGAATTGTCGATATCGAGTAAACAAATTTTCCTAATCTTTCTGTTCAAGCGCCATCTAC”, 1.1 RPM ratio (pull-down/input). For the sequence “GATGATTGTTCTCCCAGCTGATGAATTGGGGCCGTCGAGTAAACAAATTTTCCTAATCTTTCTGTTCAAGCGCCATCTAC”, the binding signal was 0.828 RPM ratio (pull-down/input). Under “GATGATTGTTCTCCCAGCTGATGAATTACGACGCTCGAGTAAACAAATTTTCCTAATCTTTCTGTTCAAGCGCCATCTAC” stands 0.993 RPM ratio (pull-down/input); under “GATGATTGTTCTCCCAGCTGATGAATTGATTTCTTCGAGTAAACAAATTTTCCTAATCTTTCTGTTCAAGCGCCATCTAC”, 1.1 RPM ratio (pull-down/input); under “GATGATTGTTCTCCCAGCTGATGAATTAAACCAATCGAGTAAACAAATTTTCCTAATCTTTCTGTTCAAGCGCCATCTAC”, 1.07 RPM ratio (pull-down/input). In the case of “GATGATTGTTCTCCCAGCTGATGAATTGCCCGCCTCGAGTAAACAAATTTTCCTAATCTTTCTGTTCAAGCGCCATCTAC”, the binding signal is 0.962 RPM ratio (pull-down/input).

As to “GATGATTGTTCTCCCAGCTGATGAATTGTATGCGTCGAGTAAACAAATTTTCCTAATCTTTCTGTTCAAGCGCCATCTAC”, the binding signal is 1.29 RPM ratio (pull-down/input). For “GATGATTGTTCTCCCAGCTGATGAATTACAAAAATCGAGTAAACAAATTTTCCTAATCTTTCTGTTCAAGCGCCATCTAC”, the binding signal was 1.59 RPM ratio (pull-down/input). As to “GATGATTGTTCTCCCAGCTGATGAATTAATCCTCTCGAGTAAACAAATTTTCCTAATCTTTCTGTTCAAGCGCCATCTAC”, the binding signal is 0.87 RPM ratio (pull-down/input). Under “GATGATTGTTCTCCCAGCTGATGAATTAATGTTATCGAGTAAACAAATTTTCCTAATCTTTCTGTTCAAGCGCCATCTAC” stands 1.95 RPM ratio (pull-down/input); under “GATGATTGTTCTCCCAGCTGATGAATTGGTGGCATCGAGTAAACAAATTTTCCTAATCTTTCTGTTCAAGCGCCATCTAC”, 1.12 RPM ratio (pull-down/input); under “GATGATTGTTCTCCCAGCTGATGAATTGGTCATGTCGAGTAAACAAATTTTCCTAATCTTTCTGTTCAAGCGCCATCTAC”, 0.895 RPM ratio (pull-down/input). Turning to “GATGATTGTTCTCCCAGCTGATGAATTTTGAGAGTCGAGTAAACAAATTTTCCTAATCTTTCTGTTCAAGCGCCATCTAC”, the binding signal was 0.905 RPM ratio (pull-down/input). As to “GATGATTGTTCTCCCAGCTGATGAATTTAAACCATCGAGTAAACAAATTTTCCTAATCTTTCTGTTCAAGCGCCATCTAC”, the binding signal is 0.996 RPM ratio (pull-down/input).

For the sequence “GATGATTGTTCTCCCAGCTGATGAATTGTTGACGTCGAGTAAACAAATTTTCCTAATCTTTCTGTTCAAGCGCCATCTAC”, the binding signal is 2.22 RPM ratio (pull-down/input).

“GATGATTGTTCTCCCAGCTGATGAATTTATCTTATCGAGTAAACAAATTTTCCTAATCTTTCTGTTCAAGCGCCATCTAC”: the binding signal is 1.24 RPM ratio (pull-down/input).

Take “GATGATTGTTCTCCCAGCTGATGAATTTAGGTTATCGAGTAAACAAATTTTCCTAATCTTTCTGTTCAAGCGCCATCTAC”: the binding signal is 1.08 RPM ratio (pull-down/input).

“GATGATTGTTCTCCCAGCTGATGAATTAACGGGGTCGAGTAAACAAATTTTCCTAATCTTTCTGTTCAAGCGCCATCTAC”: the binding signal is 0.768 RPM ratio (pull-down/input).

“GATGATTGTTCTCCCAGCTGATGAATTTCAGCTATCGAGTAAACAAATTTTCCTAATCTTTCTGTTCAAGCGCCATCTAC”: the binding signal is 0.886 RPM ratio (pull-down/input). “GATGATTGTTCTCCCAGCTGATGAATTGCCATACTCGAGTAAACAAATTTTCCTAATCTTTCTGTTCAAGCGCCATCTAC”: the binding signal is 1 RPM ratio (pull-down/input). To “GATGATTGTTCTCCCAGCTGATGAATTTGAGTGTTCGAGTAAACAAATTTTCCTAATCTTTCTGTTCAAGCGCCATCTAC” belongs 0.944 RPM ratio (pull-down/input); to “GATGATTGTTCTCCCAGCTGATGAATTCCTACGCTCGAGTAAACAAATTTTCCTAATCTTTCTGTTCAAGCGCCATCTAC”, 0.818 RPM ratio (pull-down/input). In the case of “GATGATTGTTCTCCCAGCTGATGAATTCAGGTCATCGAGTAAACAAATTTTCCTAATCTTTCTGTTCAAGCGCCATCTAC”, the binding signal is 0.934 RPM ratio (pull-down/input). To “GATGATTGTTCTCCCAGCTGATGAATTGTGACCCTCGAGTAAACAAATTTTCCTAATCTTTCTGTTCAAGCGCCATCTAC” belongs 1 RPM ratio (pull-down/input). To “GATGATTGTTCTCCCAGCTGATGAATTAATATTTTCGAGTAAACAAATTTTCCTAATCTTTCTGTTCAAGCGCCATCTAC” belongs 1.78 RPM ratio (pull-down/input). On to “GATGATTGTTCTCCCAGCTGATGAATTATGGGGGTCGAGTAAACAAATTTTCCTAATCTTTCTGTTCAAGCGCCATCTAC”, for which the binding signal is 0.831 RPM ratio (pull-down/input).

On to “GATGATTGTTCTCCCAGCTGATGAATTAGTGTTATCGAGTAAACAAATTTTCCTAATCTTTCTGTTCAAGCGCCATCTAC”, for which the binding signal was 1.8 RPM ratio (pull-down/input). Under “GATGATTGTTCTCCCAGCTGATGAATTATCACGCTCGAGTAAACAAATTTTCCTAATCTTTCTGTTCAAGCGCCATCTAC” stands 1.06 RPM ratio (pull-down/input); under “GATGATTGTTCTCCCAGCTGATGAATTGCTTCGGTCGAGTAAACAAATTTTCCTAATCTTTCTGTTCAAGCGCCATCTAC”, 1.01 RPM ratio (pull-down/input). Under “GATGATTGTTCTCCCAGCTGATGAATTGGACACTTCGAGTAAACAAATTTTCCTAATCTTTCTGTTCAAGCGCCATCTAC” stands 0.982 RPM ratio (pull-down/input); under “GATGATTGTTCTCCCAGCTGATGAATTCGGCACCTCGAGTAAACAAATTTTCCTAATCTTTCTGTTCAAGCGCCATCTAC”, 0.767 RPM ratio (pull-down/input).

“GATGATTGTTCTCCCAGCTGATGAATTCCGGGCTTCGAGTAAACAAATTTTCCTAATCTTTCTGTTCAAGCGCCATCTAC”: the binding signal was 0.776 RPM ratio (pull-down/input). Under “GATGATTGTTCTCCCAGCTGATGAATTGCTTGAATCGAGTAAACAAATTTTCCTAATCTTTCTGTTCAAGCGCCATCTAC” stands 1.12 RPM ratio (pull-down/input).

Consider “GATGATTGTTCTCCCAGCTGATGAATTTGGGGCCTCGAGTAAACAAATTTTCCTAATCTTTCTGTTCAAGCGCCATCTAC”, for which the binding signal was 0.832 RPM ratio (pull-down/input).
